In PubChem BioAssay AID1745853 (National Center for Advancing Translational Sciences (NCATS), 2022) one finds activity change, negative = inhibition data, which are given here for 31 molecules.

What all share (assay): Primary Screen for Target Class Profiling of Small Molecule Inhibitors of Methyltransferases
Assay [1] concerns the target Glycine N-methyltransferase (Homo sapiens) (UniProt Q14749). The conditions noted are these: purified enzyme, MTase-Glo SAH luminescence; measured here: GNMT inhibition; at 40 µM; stronger effect = lower value. The method in brief: (§1)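 Each enzyme was reacted with SAM and its substrate, with compounds tested once at 40 uM; SAH formed was read by MTase-Glo luminescence.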
The target in assay [2] is Guanidinoacetate N-methyltransferase (Homo sapiens) (UniProt Q14353). To be noted: purified enzyme, MTase-Glo SAH luminescence; measured here: GAMT inhibition; at 40 µM; stronger effect = lower value. The method in brief:
as §1

In assay [3] the target is Histamine N-methyltransferase (Homo sapiens) (UniProt P50135). The conditions noted are these: purified enzyme, MTase-Glo SAH luminescence; measured here: HNMT inhibition; at 40 µM; stronger effect = lower value. The method in brief: as §1
For assay [4], the target named is Nicotinamide N-methyltransferase (Homo sapiens) (UniProt P40261). To be noted: purified enzyme, MTase-Glo SAH luminescence; measured here: NNMT inhibition; at 40 µM; stronger effect = lower value. The method in brief:
as §1

The target in assay [5] is Phenylethanolamine N-methyltransferase (Homo sapiens) (UniProt P11086). The conditions noted are these: purified enzyme, MTase-Glo SAH luminescence; measured here: PNMT inhibition; at 40 µM; stronger effect = lower value. The method in brief: as §1

The other results are listed elsewhere or left out. These are further read-outs of the screen, such as a control signal, another cell line or another target. No call is given for them.
On the % scale 0 is the no-effect control and ±100 the full control effect.

As to `CCc1ccc(CNC(=O)c2ncn3c2C(=O)N(C2CC2)C(C)(C(=O)NCc2ccc(F)cc2)C3)cc1` (stereo not given), the activity change, negative = inhibition is -4.81% in assay [1]; 1.85% in assay [2]; 3.18% in assay [3]; -4.09% in assay [4]; 1.68% in assay [5].

As for `Cc1ccc(NC(=O)c2cc3n(n2)CC(C)(C(=O)NC2CCCCCC2)N(C)C3=O)c(Cl)c1` (stereo not given), the activity change, negative = inhibition turned out to be 5.29% in assay [1]; 0.447% in assay [2]; 8.51% in assay [3]; 4.81% in assay [4]; 4.35% in assay [5].

Turning to `Cc1cnc(CCNC(=O)C2(c3ccccc3)CC2)n1Cc1ccccc1`, the activity change, negative = inhibition in assay [1] is -5.59%; in assay [2], -2.69%; in assay [3] it was -32.7%; in assay [4], -15.6%; in assay [5], 5.83%.

In the case of `CSCC[C@@H]1NC(=O)c2cc(NC(=O)c3cc(-c4ccccn4)n[nH]3)ccc2NC1=O`, the activity change, negative = inhibition in assay [1] was -12.5%; in assay [2], -7.86%; in assay [3], -6.41%; in assay [4], -12.2%; in assay [5], 0.216%.

On to `Cc1ccc(C)c(C(=O)Cn2nc3n(Cc4ccc(F)cc4)c(=O)c4ccccc4n3c2=O)c1`, for which the activity change, negative = inhibition is -1.48% in assay [1]; 8.39% in assay [2]; 2.87% in assay [3]; -5.77% in assay [4]; -0.42% in assay [5].

For `CCCN1C(=O)c2c(C(=O)NCc3ccccc3Cl)ncn2CC1(C)C(=O)NC1CCCC1` (stereo not given), the activity change, negative = inhibition was -1.62% in assay [1]; 0% in assay [2]; 2.89% in assay [3]; 2.17% in assay [4]; 1.72% in assay [5].

As to `O=C(c1cccc(Cl)c1F)N1CCN(Cc2cccc(Nc3nccs3)n2)CC1`, the activity change, negative = inhibition in assay [1] is -11.5%; in assay [2], 1.03%; in assay [3], 1.7%; in assay [4], -46.3%; in assay [5], -9.93%.

On to `COC[C@H]1NC(=O)CC[C@H]1C(=O)NC1CCN(Cc2ccccc2)CC1`, for which the activity change, negative = inhibition is -1.18% in assay [1]; -1.5% in assay [2]; -1.02% in assay [3]; 3.65% in assay [4]; 3.97% in assay [5].

Consider `CCCn1c(=O)c2ccc(C(=O)NCC(C)C)cc2n2c(=O)n(CC(=O)Nc3cccc(CC)c3)nc12`, for which the activity change, negative = inhibition in assay [1] is 2.6%; in assay [2], 0%; in assay [3] it was 2.17%; in assay [4] it was -0.064%; in assay [5] it was 4.05%.

Turning to `O=C1Nc2ccccc2C12CN(Cc1ccc(C(F)(F)F)cc1)C2`, the activity change, negative = inhibition was -13.4% in assay [1]; -7.11% in assay [2]; -10.6% in assay [3]; -23% in assay [4]; -3.89% in assay [5].

Turning to `CC1(C(=O)NC2CCCCCC2)Cn2c(cc3occc32)C(=O)N1C1CCCC1` (stereo not given), the activity change, negative = inhibition in assay [1] was -4.88%; in assay [2], 0%; in assay [3], 2.42%; in assay [4], -7.15%; in assay [5], -1.87%.

On to `CCn1ncc(CN2CCCCCCNC(=O)[C@@H]3CCC[C@@H]32)c1C`, for which the activity change, negative = inhibition was -3.77% in assay [1]; 1.47% in assay [2]; 2.44% in assay [3]; -4.74% in assay [4]; -1.48% in assay [5].

On to `FC(F)(F)c1ccccc1-n1ccnc1`, for which the activity change, negative = inhibition was -10.1% in assay [1]; 0.296% in assay [2]; -3.71% in assay [3]; -13.6% in assay [4]; 3.7% in assay [5].

As for `O=C(O)C1CCc2nnc(C3CCN(C(=O)c4ccccc4)C3)n21` (stereo not given), the activity change, negative = inhibition is -6.75% in assay [1]; -7.67% in assay [2]; -1.53% in assay [3]; -16.2% in assay [4]; -10.6% in assay [5].

`Cc1ccc(CNC(=O)c2cc3n(n2)CC(C)(C(=O)NCc2ccc(F)cc2)N(C)C3=O)o1` (stereo not given): the activity change, negative = inhibition in assay [1] is 7.64%; in assay [2], 0%; in assay [3], 1.93%; in assay [4] it was 7.16%; in assay [5] it was 6.77%.

As to `N[C@H]1CN(c2cncc(C(=O)N3CCCCC3)n2)C[C@@H]1C1CC1`, the activity change, negative = inhibition in assay [1] was 0.444%; in assay [2], -0.465%; in assay [3], 1.18%; in assay [4] it was -5.19%; in assay [5] it was 13.6%.

Turning to `COCCNC(=O)[C@@H](C)C1CCc2c(C)cc(OC)c(C)c2[C@@H]1O` (stereo not given in full), the activity change, negative = inhibition in assay [1] is -6%; in assay [2], -4.72%; in assay [3], -3.11%; in assay [4], -8.42%; in assay [5] it was -4.48%.

In the case of `COC1CCC12CCN(Cc1ccc(F)c(F)c1)CC2` (stereo not given), the activity change, negative = inhibition was -3.8% in assay [1]; -3.11% in assay [2]; -0.337% in assay [3]; -3.22% in assay [4]; 10.7% in assay [5].

For the molecule `COC(=O)[C@H](CC1CCCCC1)NC(=O)[C@@H]1C[C@@H](NC(=O)Nc2cccc(F)c2)CCN1C(=O)CCC(=O)O`, the activity change, negative = inhibition is -1.55% in assay [1]; -3.62% in assay [2]; -0.564% in assay [3]; -0.511% in assay [4]; -2.35% in assay [5].

`O=C(NCCc1ccccc1)c1ccc2c(=O)[nH]c3c(C(=O)NCC4CCCO4)sc(=S)n3c2c1` (stereo not given): the activity change, negative = inhibition in assay [1] is -52.1%; in assay [2] it was -10.4%; in assay [3] it was -46.3%; in assay [4], -39.7%; in assay [5], -52.5%.

On to `C/C(=C\C1CCC(C)C2CCC3(C)OC123)C(=O)O` (stereo not given), for which the activity change, negative = inhibition is 1.72% in assay [1]; -1.99% in assay [2]; 8.83% in assay [3]; -17.2% in assay [4]; 4.05% in assay [5].

As for `Cc1ccc(-c2nc(CNS(=O)(=O)C3CC3)[nH]c2-c2ccccn2)cc1`, the activity change, negative = inhibition is -5.75% in assay [1]; -2.71% in assay [2]; -1.98% in assay [3]; -12.4% in assay [4]; -0.243% in assay [5].

On to `N#Cc1ccc(CN2CCC(N3CCOC3=O)CC2)cc1`, for which the activity change, negative = inhibition is -6.41% in assay [1]; -10.9% in assay [2]; -5.69% in assay [3]; -13.3% in assay [4]; -9.78% in assay [5].

With `CCCCOC(=O)NS(=O)(=O)c1sc(CC(C)C)cc1-c1ccc(Cn2c(CC)nc3c(C)cc(C)nc32)cc1`, the activity change, negative = inhibition in assay [1] was -13.4%; in assay [2] it was 8.19%; in assay [3] it was -1.98%; in assay [4], -20.1%; in assay [5], 8.85%.

`Cc1cc(Cl)ccc1NC(=O)c1ncn2c1C(=O)N(C1CC1)C(C)(C(=O)NC1CCCC1)C2` (stereo not given): the activity change, negative = inhibition in assay [1] is -2.86%; in assay [2] it was 0%; in assay [3], 6.84%; in assay [4] it was 2.15%; in assay [5] it was 3.08%.

Turning to `CN(C)CCN1CC2(CCCN(C(=O)CCCn3cnnn3)C2)CCC1=O` (stereo not given), the activity change, negative = inhibition was 0.085% in assay [1]; -4.31% in assay [2]; 0.559% in assay [3]; -4.36% in assay [4]; 3.04% in assay [5].

Turning to `O=c1c2ccccc2n2c(-c3ccc(Cl)cc3)nnc2n1Cc1ccccc1`, the activity change, negative = inhibition in assay [1] was -5.08%; in assay [2] it was 3.61%; in assay [3], -1.2%; in assay [4], 2.36%; in assay [5], -4.52%.

As to `COCCN1C(=O)c2ccccc2C(C(=O)NCc2ccc(Cl)cc2)C12CCCC2` (stereo not given), the activity change, negative = inhibition in assay [1] was -8.36%; in assay [2], -8.25%; in assay [3], -1.86%; in assay [4] it was -7.29%; in assay [5] it was -0.684%.

For `Cc1nn2c(c1-c1ccccc1N1CCCC1)N(C(=O)C1CCOCC1)CCC2`, the activity change, negative = inhibition in assay [1] is -17.4%; in assay [2], -10.1%; in assay [3] it was -4.45%; in assay [4], -17.5%; in assay [5] it was -8.42%.

In the case of `O=C(C1CCOC1)N1CCC(C(=O)O)(n2ccc(-c3ccco3)n2)CC1` (stereo not given), the activity change, negative = inhibition is -6.03% in assay [1]; 1.32% in assay [2]; 1.2% in assay [3]; 1.72% in assay [4]; 14.8% in assay [5].

Turning to `NCCOc1cc(C(=O)Nc2cc(OCCN)c3ccccc3n2)nc(C(=O)Nc2cc(OCCN)c3ccccc3n2)c1`, the activity change, negative = inhibition was -6.6% in assay [1]; 0.955% in assay [2]; -63.4% in assay [3]; -13% in assay [4]; -3.6% in assay [5].
